These results are taken from PubChem BioAssay AID1346428 (National Center for Advancing Translational Sciences (NCATS), 2018).

“And” between values parts separate entries of the source, which are not always exact repeats. Equal values may be shown once. The whole screen tested about 48,000 compounds, of which about 1,200 (2.5%) were called active. Roughly 2% stayed inconclusive and do not appear here.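 How the source made its calls: active means activation of at least 60% and not above a set upper limit (about 1 call in 100 departs from these limits); inconclusive means activation of 40% to 60%, or above that upper limit; inactive means activation under 40%.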 The list shows a part of the results.

Sequence of UniProt O75388 (O75388 whole entry, looked up): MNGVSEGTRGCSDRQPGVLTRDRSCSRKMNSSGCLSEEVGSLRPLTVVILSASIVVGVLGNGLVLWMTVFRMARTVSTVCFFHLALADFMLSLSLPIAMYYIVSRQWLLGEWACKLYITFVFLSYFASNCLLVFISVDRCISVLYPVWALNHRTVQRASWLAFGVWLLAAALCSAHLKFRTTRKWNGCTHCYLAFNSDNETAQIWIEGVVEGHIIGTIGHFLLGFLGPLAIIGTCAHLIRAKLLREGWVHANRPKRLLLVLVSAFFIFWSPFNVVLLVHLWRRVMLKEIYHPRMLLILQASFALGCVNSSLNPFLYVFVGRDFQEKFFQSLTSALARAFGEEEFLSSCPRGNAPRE

This assay addresses Probable G-protein coupled receptor 32 (Homo sapiens) (UniProt O75388). Put plainly: qHTS for Agonists of Human Resolvin D1 Receptor DRV1. Further: 0% is about no effect. The conditions noted are these: CHO-K1 GPR32 beta-arrestin PathHunter luminescence, 90 min; at 76.9 µM; stronger effect = higher value; zero percent set by DMSO-only wells. Put shortly:
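Luminescent readout of beta-Gal complementation quantifies ligand-induced beta-arrestin association with GPR32 in CHO-K1 cells; 90 min compound incubation at 37 °C, detection 1 h at room temperature.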
A general note: qHTS replaces the single test concentration by a dilution series.
Take `COc1ccc(N2CCN(C(=O)c3cnc(N4CCOCC4)c4ccccc34)CC2)cc1`: the activation is inactive: -1.44%.

On to `Cc1ccc(-c2nnc3c4ccccc4c(-c4ccccc4)nn23)cc1`, for which the activation was inactive: -8.63%.

With `CC(C)NC(=O)CSc1cn(CC(=O)N2CCCCCC2)c2ccccc12`, the activation was inactive: -22.7%.

Take `CCOc1ccccc1NCc1nnc2n1CCCCC2`: the activation is inactive: 31.4%.

As for `Cc1ccc(NCc2cc3cc4c(cc3n(CC(=O)Nc3ccc(C)cc3)c2=O)OCCO4)cc1`, the activation is inactive: -33.9%.

As to `Nc1c(C(=O)NCc2cccs2)nnn1CC(=O)Nc1cccc(F)c1`, the activation is inactive: -6.23%.

For `COC(=O)c1scc(-c2ccc(C)cc2)c1S(=O)(=O)N1CCN(c2ccc(F)cc2)CC1`, the activation was inactive: -2.75%.

As for `O=C(NC1CCCCC1)c1ccc(CSc2nc3cccnc3n2Cc2cccc(F)c2)cc1`, the activation is inactive: -10.9%.

For the compound `Cc1cc(C)cc(-n2ccn(CC(=O)c3ccc(F)cc3)c(=O)c2=O)c1`, the activation was inactive: -8.29%.

For `Cc1cc(C)c(S(=O)(=O)NCCc2sc3nc(-c4ccc(F)cc4)nn3c2C)c(C)c1`, the activation was inactive: -24.5%.

For the compound `CCC1CCCCN1C(=O)c1c[nH]c2ccc(S(=O)(=O)Nc3cccc(OC)c3)cc2c1=O` (stereo not drawn), the activation is inactive: -2.1%.

For the compound `O=C(NCc1ccco1)c1ccc2c(c1)N(Cc1ccccc1)C(=O)c1ccccc1S2`, the activation was inactive: -27.9%.

In the case of `COC(=O)c1ccc(CSc2c(C(C)C)cnc3c2c(=O)n(C)c(=O)n3C)cc1`, the activation was inactive: -18.9%.

As for `CCOc1ccc(NC(=O)CCc2c(C)nc3cc(-c4ccccc4OC)nn3c2C)cc1`, the activation is inactive: 28.5%.

Take `Cc1ccc(NC(=O)c2sc3ncnc(N(C)C4CCCCC4)c3c2C)c(C)c1`: the activation was inactive: -0.343%.

Consider `O=C(c1ccc(CS(=O)(=O)c2ccc(Br)cc2)o1)N1CCN(c2ccc(F)cc2)CC1`, for which the activation is inactive: 30%.

For `Cc1c(NC(=O)Nc2ccc(Cl)c(Cl)c2)sc2nc3n(c(=O)c12)CCC(C)CC3` (stereo not drawn), the activation was inactive: 14%.

For `Cc1ccc(N(C)S(=O)(=O)c2ccc3[nH]c(=O)ccc3c2)cc1`, the activation was inactive: 6.41%.

For `O=C(O)c1ccc(NS(=O)(=O)c2ccc(Cl)c(C(=O)Nc3ccccc3)c2)cc1`, the activation is inactive: -11%.

Consider `COc1ccc(NC(=O)c2cnn(-c3ccc(C)c(C)c3)c2C2CCNCC2)cc1OC`, for which the activation was inactive: -4.66%.

As to `O=C(Nc1nc2n(n1)C(c1ccc(F)cc1)C=C(c1ccc(Cl)cc1)N2)c1ccc([N+](=O)[O-])cc1` (stereo not drawn), the activation is inactive: -9.8%.

Turning to `N#C/C(=C\c1ccc(OCc2ccc(Cl)cc2Cl)cc1)c1nc2ccccc2[nH]1`, the activation was inactive: -8.57%.

Take `Cc1oc2c(cc(NS(=O)(=O)c3ccc(C(C)C)cc3)c3ccccc32)c1C(=O)OCc1ccccc1`: the activation is inactive: -3.46%.

On to `Cc1cccc(C2=Nc3ccccc3N=C(c3cc(Cl)ccc3O)C2)c1`, for which the activation is inactive: -1.13%.

On to `CCCNC(=O)Cn1nc(-c2ccc(OC)cc2)c2cnc3ccc(F)cc3c21`, for which the activation is inactive: 0.635%.

In the case of `COc1ccc(OC)c(CNC(=O)c2cc3c(Cl)nc4ccccc4c3s2)c1`, the activation was inactive: 6.19%.

`Cc1cccc(NC(=O)/C(C#N)=C/c2ccco2)c1`: the activation was inactive: 38.4%.

`O=C(Nc1cccc(Br)c1)N1CCN2CCCCC2C1` (stereo not drawn): the activation was inactive: -14.4%.

With `CCOc1ccc(-n2c(C)nc3cc(C(=O)NC4CCCC4)ccc32)cc1`, the activation was inactive: -3.08%.

For the compound `CCOc1ccccc1NC(=O)c1c2c(nc3ccccc13)C(=O)N(C1CCCCC1)C2`, the activation is inactive: -12.4%.

`COc1ccc(-c2nc3n(n2)C(c2ccccc2OC)C(C(=O)Nc2cccnc2)=C(C)N3)cc1` (stereo not drawn): the activation is inactive: -14.6%.

Consider `O=C(Nc1cccc(Cl)c1)N1CC2CCCN2c2ccccc21` (stereo not drawn), for which the activation is inactive: -9.89%.

For `O=C(C1CCC(CNS(=O)(=O)c2ccc(Br)s2)CC1)N1CCN(c2ccc(F)cc2)CC1` (stereo not drawn), the activation is inactive: 16.9%.

For the compound `CCc1ccccc1NC(=O)CC1NCCNC1=O` (stereo not drawn), the activation is inactive: -6.5%.

For `CCOc1ccc(C(=O)Nc2ccc3oc(-c4ccc(C)cc4C)nc3c2)cc1Br`, the activation was inactive: 1.86%.

In the case of `CCOc1ccc(NC(=O)Cn2c(=O)n(CCCCC(=O)NCCc3ccc(Cl)cc3)c(=O)c3ccccc32)cc1`, the activation is inactive: -6.16%.

As for `CCC1CN(C(=O)N2CCC(C(=O)N3CCN(c4ccccc4)CC3)CC2)c2ccccc2O1` (stereo not drawn), the activation is inactive: -10.1%.

Take `COc1ccc(CNC(=O)c2ccc3c(c2)nc2n3CCCCC2)cc1`: the activation was inactive: -8.76%.

With `Cc1ccc(NS(=O)(=O)c2ccc3c(c2)N(C)C(=O)CC(=O)N3C)cc1Cl`, the activation is inactive: 20.1%.

For the compound `Cc1ccc(-n2c(=O)c3ccc(C(=O)NCc4ccco4)cc3n(CC(=O)Nc3ccc(C)c(F)c3)c2=O)cc1`, the activation is inactive: -28.7%.

`O=S(=O)(NCC(c1cccs1)S(=O)(=O)c1ccccc1)c1ccccc1` (stereo not drawn): the activation is inactive: -9.4%.

In the case of `Nc1nnc(-c2cccc(Cl)c2Cl)c(N)n1`, the activation was inactive: 8.99% and inactive: -1.54%.

On to `CCOC(=O)N1CCc2c(sc(NCc3ccc(N(CC)CC)cc3)c2C(=O)Nc2cc(OC)ccc2OC)C1`, for which the activation is inactive: -5.39%.

Regarding `CCOc1ccc(-n2c(SCC(=O)NCc3ccccc3)nc3n[nH]c(C)c3c2=N)cc1`, the activation was inactive: 0.942%.

Consider `Cc1cc(C)n(C(C)CC(=O)Nc2ccc(Cl)cc2C)n1` (stereo not drawn), for which the activation is inactive: -8.95%.

As for `CC1Cc2cc(S(=O)(=O)CCC(=O)Nc3ccccc3F)ccc2N1C(=O)C1CC1` (stereo not drawn), the activation is inactive: 5.15%.

Regarding `COc1cccc(CN2C(=O)C3(SCC(=O)N3c3ccc(C)c(Cl)c3)c3ccccc32)c1` (stereo not drawn), the activation was inactive: 17.9%.

With `CC[C@@]1(O)C(=O)OCc2c1cc1n(c2=O)Cc2cc3c(CN(C)C)c(O)ccc3nc2-1`, the activation is inactive: 24.9%.

Regarding `CCOC(=O)c1cc(-c2ccc(C)cc2)n(CCCC(=O)Nc2cc(C)ccc2C)c1`, the activation is inactive: -3.77%.

As for `CCOc1ccccc1NS(=O)(=O)c1cc2[nH]c(=O)c(=O)[nH]c2cc1C`, the activation is inactive: -6.76%.

Regarding `COc1ccc(Cn2ccc3nc(C)c(C(=O)Nc4cc(OC)c(OC)c(OC)c4)cc3c2=O)cc1`, the activation was inactive: 0.345%.

As to `CCOc1ccc(Sc2cc(C(=O)NCc3ccc(C)cc3)c3ccccc3n2)cc1`, the activation was inactive: -16%.

For `COCCCn1c(=N)c(C(=O)NC2CCCC2)cc2c(=O)n3cccc(C)c3nc21`, the activation is inactive: -3.81%.

For `CCCCC(=O)N1CCc2cc(OC)c(OC)cc2C1COc1ccc(C(=O)OCC)cc1` (stereo not drawn), the activation is inactive: -18%.

Turning to `Cc1cccc(C(=O)n2nc(C)c(S(=O)(=O)N3CCOCC3)c2C)c1`, the activation was inactive: 20.1%.

Take `CCCCc1ccc(NC(=O)CSc2nc3ccccc3nc2N2CCCCC2)cc1`: the activation was inactive: -5.35%.

As for `CCOC(=O)c1ccc(NC(=O)CS(=O)(=O)Cc2nc(-c3ccc(C)cc3)oc2C)cc1`, the activation is inactive: -6.55%.

As to `CCCNC(=O)CCc1c(C)nc2nc(CNC(=O)c3ccccc3)nn2c1C`, the activation is inactive: -11%.

Consider `COC(=O)c1c(-c2ccc(Cl)cc2)noc1N1CCN(c2ccc(C(C)=O)cc2)CC1`, for which the activation is inactive: -5.55%.

For `Cc1ccc(F)cc1NC(=O)CSc1nc(-c2cccs2)cc(C(F)(F)F)n1`, the activation was inactive: 5.63%.

Turning to `CCOc1ccc(NC(=O)C(CC)n2nc(C)c3c(C)n(-c4ccccc4)nc3c2=O)cc1` (stereo not drawn), the activation is inactive: -17.6%.

In the case of `COc1ccc(NC(=O)c2oc3ccccc3c2NC(=O)c2cc3ccccc3o2)c(OC)c1`, the activation is inactive: -8.39%.

Regarding `Cc1ccc(NC(=O)CN2C(=O)CC(c3ccco3)Sc3ccccc32)cc1Cl` (stereo not drawn), the activation is inactive: -44.4%.

For `COc1cc(OC)cc(-n2c(=O)c3sccc3n(Cc3ccc(F)cc3)c2=O)c1`, the activation was inactive: 0.0212%.

Consider `COc1cc(OC)c(NC(=O)Nc2ccc3c(c2)N(C)C(=O)c2ccccc2S3)cc1Cl`, for which the activation is inactive: -22.9%.

Consider `Cc1ccc(-c2onc(C)c2C)cc1S(=O)(=O)N1CCN(c2ccccc2F)CC1`, for which the activation was inactive: -14.4%.

On to `CCOc1ccccc1CNC(=O)c1ccc(-n2c(C)cc3c2CCC(C)C3)cc1` (stereo not drawn), for which the activation was inactive: -15.7%.

Regarding `COC(=O)c1ccccc1NC(=O)CCCn1nc(C)c2c(C)n(-c3ccccc3)nc2c1=O`, the activation is inactive: -12.1%.

With `COc1cc(C(CC(=O)NCc2ccccc2Cl)N2Cc3ccccc3C2=O)cc(OC)c1OC` (stereo not drawn), the activation was inactive: 3.46%.

Take `COc1cccc(NC(=O)CCNC(=O)Cn2cnc3ccccc3c2=O)c1`: the activation was inactive: -3.11%.

As to `CCn1c2ccccc2c2cc(CN3CCN(Cc4cccc(Cl)c4)CC3)ccc21`, the activation is inactive: -30.4%.

Regarding `Oc1cc(O)cc(/C=C/c2ccc(O)c(O)c2)c1`, the activation is inactive: 17.1%.

`COc1ccc(CCNC(=O)CN2C(=O)COc3ccc(S(=O)(=O)N4CCCC4)cc32)cc1OC`: the activation was inactive: -13.3%.

For `Cc1ccc(Cl)cc1N1CCN(c2nc3ccccc3c3nc(-c4cccnc4)nn23)CC1`, the activation is inactive: 14.4%.

`Cc1ccc(CNC(=O)c2cc(-c3ccc(C)c(C)c3)nc3ccccc23)cc1`: the activation was inactive: -14.7%.

For the compound `Cc1ccc(C(=O)O)cc1NC(=O)c1nsc2ccccc12`, the activation is inactive: -13.8%.

With `Cc1ccc(NC(=O)C(=O)NCC(c2cccnc2)N2CCN(Cc3ccccc3)CC2)cc1Cl` (stereo not drawn), the activation is inactive: -3.47%.

Take `Cc1cc(Cl)ccc1NC(=O)CSc1nc2c(c(=O)[nH]1)CCC2`: the activation was inactive: -16.2%.

Turning to `COC(=O)c1sc(N2C(=O)c3oc4ccc(C)cc4c(=O)c3C2c2ccc(OC)cc2)nc1C` (stereo not drawn), the activation was inactive: -2.86%.

For the compound `CCCOc1ccc(Oc2nc(NC)nc(N3CCOCC3)n2)nn1`, the activation was inactive: -9.54%.

`COc1ccc(CNC(=O)Cn2c(=O)n3nc(-c4ccc(OC)cc4)nc3c3ccccc32)cc1`: the activation was inactive: 27.7%.

With `O=C(O)/C=C(\CC(=O)O)C(=O)O`, the activation was inactive: 27.6%.

As to `CC(=O)c1cccc(NS(=O)(=O)c2ccc3[nH]c4c(c3c2)CCCCC4)c1`, the activation was inactive: 31.6%.
